Results from publication PMC6777367.
Where two headings read alike, the source gives them in different places. Results are given in words; binding and its absence hold for the method and conditions named. In cells and extracts the contact can be indirect. Some results given as binding are weak or reduced against the parent protein; the word gives no strength. For part of these data: Where a sequence is shown, tags or fusion partners need not be part of it.

By UniProt entry, the sequences of proteins in these tests, tags left out. Where a name states a change or a piece, a line headed by the entry shows the natural chain unless it says otherwise.
UniProt Q9Y366: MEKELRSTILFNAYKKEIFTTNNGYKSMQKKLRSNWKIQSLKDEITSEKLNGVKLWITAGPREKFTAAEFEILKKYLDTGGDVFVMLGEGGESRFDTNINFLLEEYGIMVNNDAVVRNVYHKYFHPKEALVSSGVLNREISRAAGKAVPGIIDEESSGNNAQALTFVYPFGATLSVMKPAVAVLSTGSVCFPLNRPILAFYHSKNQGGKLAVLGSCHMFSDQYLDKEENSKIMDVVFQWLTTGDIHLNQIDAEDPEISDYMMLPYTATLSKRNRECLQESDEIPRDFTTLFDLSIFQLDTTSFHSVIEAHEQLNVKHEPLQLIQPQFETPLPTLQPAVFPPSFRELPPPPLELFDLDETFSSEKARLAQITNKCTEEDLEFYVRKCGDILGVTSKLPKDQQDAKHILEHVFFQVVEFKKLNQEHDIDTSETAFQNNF
UniProt Q8NFJ9: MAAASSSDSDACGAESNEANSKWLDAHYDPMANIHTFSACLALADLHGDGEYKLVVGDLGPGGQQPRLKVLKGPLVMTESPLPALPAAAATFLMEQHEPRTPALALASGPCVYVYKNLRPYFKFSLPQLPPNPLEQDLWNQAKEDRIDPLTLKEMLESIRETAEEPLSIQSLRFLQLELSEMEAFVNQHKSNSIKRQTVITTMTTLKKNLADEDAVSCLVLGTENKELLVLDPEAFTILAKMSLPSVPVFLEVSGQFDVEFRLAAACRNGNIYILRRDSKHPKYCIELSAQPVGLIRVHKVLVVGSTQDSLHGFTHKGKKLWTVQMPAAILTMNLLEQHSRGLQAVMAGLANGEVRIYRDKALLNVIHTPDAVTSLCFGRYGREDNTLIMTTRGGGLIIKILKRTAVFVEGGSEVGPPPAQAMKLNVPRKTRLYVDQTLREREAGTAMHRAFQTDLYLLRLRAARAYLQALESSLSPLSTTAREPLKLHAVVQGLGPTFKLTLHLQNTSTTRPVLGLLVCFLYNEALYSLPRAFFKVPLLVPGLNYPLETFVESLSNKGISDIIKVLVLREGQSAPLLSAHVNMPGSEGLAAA

T1: EGFP-IFT38(WT) (human) (UniProt Q96AJ1)
T1 sequence: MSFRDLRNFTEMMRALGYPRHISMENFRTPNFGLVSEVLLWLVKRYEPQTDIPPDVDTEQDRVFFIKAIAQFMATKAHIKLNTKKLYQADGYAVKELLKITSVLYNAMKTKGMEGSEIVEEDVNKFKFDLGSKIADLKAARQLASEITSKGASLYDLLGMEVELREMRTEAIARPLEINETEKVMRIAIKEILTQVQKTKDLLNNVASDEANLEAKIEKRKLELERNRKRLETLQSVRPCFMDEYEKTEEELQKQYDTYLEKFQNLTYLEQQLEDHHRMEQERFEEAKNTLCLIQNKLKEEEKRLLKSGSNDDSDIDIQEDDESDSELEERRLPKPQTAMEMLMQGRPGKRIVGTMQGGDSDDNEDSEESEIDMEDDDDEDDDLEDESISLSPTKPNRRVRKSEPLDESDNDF

T2: EGFP-IFT38(ΔC) (human) (UniProt Q96AJ1)
T2 sequence: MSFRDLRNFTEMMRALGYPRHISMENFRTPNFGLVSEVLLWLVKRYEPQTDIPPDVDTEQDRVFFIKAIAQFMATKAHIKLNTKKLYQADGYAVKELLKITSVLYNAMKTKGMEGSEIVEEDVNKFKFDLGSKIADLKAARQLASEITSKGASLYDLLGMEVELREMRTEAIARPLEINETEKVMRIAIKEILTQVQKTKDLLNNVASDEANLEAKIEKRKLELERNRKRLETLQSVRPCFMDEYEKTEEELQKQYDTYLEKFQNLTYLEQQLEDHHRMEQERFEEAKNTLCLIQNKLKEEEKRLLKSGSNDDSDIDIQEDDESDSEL

T3: EGFP-IFT38 CT construct (human) (UniProt Q96AJ1)
T3 sequence: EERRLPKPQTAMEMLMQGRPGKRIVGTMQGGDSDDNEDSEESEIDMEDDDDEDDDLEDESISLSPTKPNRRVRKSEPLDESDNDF

T4: EGFP-IFT38 CC construct (human) (UniProt Q96AJ1)
T4 sequence: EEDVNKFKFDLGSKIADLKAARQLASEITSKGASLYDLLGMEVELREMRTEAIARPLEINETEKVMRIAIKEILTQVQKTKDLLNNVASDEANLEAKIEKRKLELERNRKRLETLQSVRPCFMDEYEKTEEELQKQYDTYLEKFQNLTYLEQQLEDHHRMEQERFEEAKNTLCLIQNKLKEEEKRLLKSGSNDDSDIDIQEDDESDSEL

T5: EGFP-IFT38(ΔN) (human) (UniProt Q96AJ1)
T5 sequence: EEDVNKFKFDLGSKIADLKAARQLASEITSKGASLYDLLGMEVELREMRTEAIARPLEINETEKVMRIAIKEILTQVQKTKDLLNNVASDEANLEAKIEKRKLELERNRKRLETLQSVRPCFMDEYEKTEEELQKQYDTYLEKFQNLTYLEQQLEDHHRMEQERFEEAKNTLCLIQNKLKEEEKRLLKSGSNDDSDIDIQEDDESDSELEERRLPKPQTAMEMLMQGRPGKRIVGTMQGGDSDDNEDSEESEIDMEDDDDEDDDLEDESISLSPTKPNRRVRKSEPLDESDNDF

T6: IFT25–IFT27 (UniProt Q9Y547)
T6 sequence 1: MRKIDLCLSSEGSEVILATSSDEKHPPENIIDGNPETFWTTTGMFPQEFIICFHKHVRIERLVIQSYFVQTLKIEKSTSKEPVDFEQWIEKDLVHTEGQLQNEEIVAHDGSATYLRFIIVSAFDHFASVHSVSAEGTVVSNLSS
T6 sequence 2: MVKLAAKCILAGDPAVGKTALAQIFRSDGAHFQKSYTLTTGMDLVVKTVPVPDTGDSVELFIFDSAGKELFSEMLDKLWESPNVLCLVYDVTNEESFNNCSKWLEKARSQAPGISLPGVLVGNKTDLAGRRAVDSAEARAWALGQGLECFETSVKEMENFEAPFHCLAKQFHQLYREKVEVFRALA


Columns and labels:
[1] = biological target: T1, EGFP-IFT38(WT) (human); assay: co-IP; as the VIP assay (EGFP fusion precipitated from HEK293T lysates with GST-tagged anti-GFP nanobody beads), the beads then analysed by conventional immunoblotting with anti-mChe or anti-RFP and anti-GFP antibodies
[2] = biological target: T2, EGFP-IFT38(ΔC) (human); assay: as above
[3] = biological target: T1, EGFP-IFT38(WT) (human); assay: co-IP; visible immunoprecipitation (VIP) assay: lysates of co-transfected HEK293T cells (HMDEKN buffer: 10 mM HEPES pH 7.4, 5 mM MgSO4, 1 mM DTT, 0.5 mM EDTA, 25 mM KCl, 0.05% NP-40) precipitated by the EGFP fusion with GST-tagged anti-GFP nanobody on glutathione-Sepharose 4B beads; red fluorescence on the beads seen by microscopy
[4] = biological target: T2, EGFP-IFT38(ΔC) (human); assay: as above
[5] = biological target: T3, EGFP-IFT38 CT construct (human); assay: co-IP; as the VIP assay (EGFP fusion precipitated from HEK293T lysates with GST-tagged anti-GFP nanobody beads), the beads then analysed by conventional immunoblotting with anti-mChe or anti-RFP and anti-GFP antibodies
[6] = biological target: T4, EGFP-IFT38 CC construct (human); assay: as above
[7] = biological target: T5, EGFP-IFT38(ΔN) (human); assay: as above
[8] = biological target: T6, IFT25–IFT27; assay: co-IP; visible immunoprecipitation (VIP) assay: lysates of co-transfected HEK293T cells (HMDEKN buffer: 10 mM HEPES pH 7.4, 5 mM MgSO4, 1 mM DTT, 0.5 mM EDTA, 25 mM KCl, 0.05% NP-40) precipitated by the EGFP fusion with GST-tagged anti-GFP nanobody on glutathione-Sepharose 4B beads; red fluorescence on the beads seen by microscopy
[9] = biological target: T3, EGFP-IFT38 CT construct (human); assay: as above
[10] = biological target: T4, EGFP-IFT38 CC construct (human); assay: as above
[11] = biological target: T5, EGFP-IFT38(ΔN) (human); assay: as above
[12] = biological target: T6, IFT25–IFT27; assay: as above; remark: listed apart in the source

Molecule | binding [1] | binding [2] | binding [3] | binding [4] | binding [12] | further results
ARL6(WT) (protein, UniProt Q9H0F7 1-186) MGLLDRLSVLLGLKKKEVHVLCLGLDNSGKTTIINKLKPSNAQSQNILPTIGFSIEKFKSSSLSFTVFDMSGQGRYRNLWEHYYKEGQAIIFVIDSSDRLRMVVAKEELDTLLNHPDIKHRRIPILFFANKMDLRDAVTSVKVSQLLCLENIKDKPWHICASDAIKGEGLQEGVDWLQDQIQTVKT | – | – | – | – | no binding | –
ARL6(T31R) (protein, UniProt Q9H0F7 1-186) MGLLDRLSVLLGLKKKEVHVLCLGLDNSGKRTIINKLKPSNAQSQNILPTIGFSIEKFKSSSLSFTVFDMSGQGRYRNLWEHYYKEGQAIIFVIDSSDRLRMVVAKEELDTLLNHPDIKHRRIPILFFANKMDLRDAVTSVKVSQLLCLENIKDKPWHICASDAIKGEGLQEGVDWLQDQIQTVKT | – | – | – | – | no binding | –

The next lines start with results.

binding [1] | binding [2] | binding [3] | binding [4] | binding [12] | Molecule | further results
binds | binds | binds | binds | – | mChe-fused IFT52+IFT57+IFT88 (co-expressed; the other subunits of the connecting tetramer) (from UniProt Q9Y366 1-437; Q9NWB7 1-429; Q13099 1-824) (complex) | –
binds | no binding | binds | no binding | – | mChe-BBS1+BBS2+BBS9 (co-expressed) (from UniProt Q8NFJ9 1-593; Q9BXC9 1-721; Q3SYG4 1-887) (complex) | binding [5]: no binding; binding [6]: no binding; binding [7]: binds; binding [8]: no binding; binding [9]: no binding; binding [10]: no binding; binding [11]: binds
– | – | – | – | no binding | linker subunits of the BBSome (co-expressed, Fig. S1A) (complex, UniProt Q96RK4 1-519; A8MTZ0 1-92; Q8TAM2 1-541) chain 1: MAEERVATRTQFPVSTESQKPRQKKAPEFPILEKQNWLIHLHYIRKDYEACKAVIKEQLQETQGLCEYAIYVQALIFRLEGNIQESLELFQTCAVLSPQSADNLKQVARSLFLLGKHKAAIEVYNEAAKLNQKDWEISHNLGVCYIYLKQFNKAQDQLHNALNLNRHDLTYIMLGKIHLLEGDLDKAIEVYKKAVEFSPENTELLTTLGLLYLQLGIYQKAFEHLGNALTYDPTNYKAILAAGSMMQTHGDFDVALTKYRVVACAVPESPPLWNNIGMCFFGKKKYVAAISCLKRANYLAPFDWKILYNLGLVHLTMQQYASAFHFLSAAINFQPKMGELYMLLAVALTNLEDIENAKRAYAEAVHLDKCNPLVNLNYAVLLYNQGEKKNALAQYQEMEKKVSLLKDNSSLEFDSEMVEMAQKLGAALQVGEALVWTKPVKDPKSKHQTTSTSKPASFQQPLGSNQALGQAMSSAAAYRTLPSGAGGTSQFTKPPSLPLEPEPAVESSPTETSEQIREK chain 2: MLKAAAKRPELSGKNTISNNSDMAEVKSMFREVLPKQGPLFVEDIMTMVLCKPKLLPLKSLTLEKLEKMHQAAQNTIRQQEMAEKDQRQITH chain 3: MSSEMEPLLLAWSYFRRRKFQLCADLCTQMLEKSPYDQEPDPELPVHQAAWILKARALTEMVYIDEIDVDQEGIAEMMLDENAIAQVPRPGTSLKLPGTNQTGGPSQAVRPITQAGRPITGFLRPSTQSGRPGTMEQAIRTPRTAYTARPITSSSGRFVRLGTASMLTSPDGPFINLSRLNLTKYSQKPKLAKALFEYIFHHENDVKTIHLEDVVLHLGIYPFLLRNKNHIEKNALDLAALSTEHSQYKDWWWKVQIGKCYYRLGMYREAEKQFKSALKQQEMVDTFLYLAKVYVSLDQPVTALNLFKQGLDKFPGEVTLLCGIARIYEEMNNMSSAAEYYKEVLKQDNTHVEAIACIGSNHFYSDQPEIALRFYRRLLQMGIYNGQLFNNLGLCCFYAQQYDMTLTSFERALSLAENEEEAADVWYNLGHVAVGIGDTNLAHQCFRLALVNNNNHAEAYNNLAVLEMRKGHVEQARALLQTASSLAPHMYEPHFNFATISDKIGDLQRSYVAAQKSEAAFPDHVDTQHLIKQLRQHFAML | –
